# Data reported in paper PMC6919601, “Identification of Plasmodium dipeptidyl aminopeptidase allosteric inhibitors by high throughput screening” (PLoS ONE, 2019).
# In all, about 110,000 compounds went through this assay and about 230 (0.21%) showed an effect of 50% or more. The list shows a part of the results.
# Target: DPAP1 (Plasmodium falciparum, UniProt Q8IIJ9)
# Test: primary screen, percent inhibition; read by cleavage of a fluorogenic dipeptide substrate; higher = more effect of the substance
# Parameters: species or system P. falciparum D10 trophozoite lysates; single well
# 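Note: 30 min substrate incubation versus DMSO and 10 µM JCP410 controls.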
# Sequence of DPAP1 (Q8IIJ9 whole entry, looked up): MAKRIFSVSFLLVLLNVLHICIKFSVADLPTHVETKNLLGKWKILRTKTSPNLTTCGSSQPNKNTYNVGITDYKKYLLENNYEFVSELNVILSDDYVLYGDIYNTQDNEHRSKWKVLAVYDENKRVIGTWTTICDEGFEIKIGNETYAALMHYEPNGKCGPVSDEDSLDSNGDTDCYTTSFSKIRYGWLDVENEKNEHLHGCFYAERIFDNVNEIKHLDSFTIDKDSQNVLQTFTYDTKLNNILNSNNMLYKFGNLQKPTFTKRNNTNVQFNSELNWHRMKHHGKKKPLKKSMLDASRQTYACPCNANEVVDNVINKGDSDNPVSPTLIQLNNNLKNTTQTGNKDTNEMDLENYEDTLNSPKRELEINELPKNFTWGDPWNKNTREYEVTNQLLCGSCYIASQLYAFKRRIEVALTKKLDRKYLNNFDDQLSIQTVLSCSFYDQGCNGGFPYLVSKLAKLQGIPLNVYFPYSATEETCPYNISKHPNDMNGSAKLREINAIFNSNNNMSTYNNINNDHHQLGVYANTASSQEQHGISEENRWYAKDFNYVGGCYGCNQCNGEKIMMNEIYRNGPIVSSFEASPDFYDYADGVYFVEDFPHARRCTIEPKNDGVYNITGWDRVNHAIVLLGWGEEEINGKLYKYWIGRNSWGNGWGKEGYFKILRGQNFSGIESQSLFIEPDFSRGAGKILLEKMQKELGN
row,Compound,% Inhibition @ 10 uM [%]
1,CCOc1ccc(C2(O)C[N+](c3ccc(C)cc3)=C3CCCCCN32)cc1 (stereo not shown),-1.4
2,CSc1ccc(CCNC(=O)CN2C(=O)C(c3ccccc3)Oc3cccnc32)cc1 (stereo not shown),0.676
3,Cc1ccc(-c2cn3c(n2)sc2cc(C(=O)N4CCN(c5ccccn5)CC4)ccc23)cc1,26.2
4,CCOc1ccc(CN2CCC(O)CC2)cc1,3.16
5,CC(C)(C)c1ccc(S(=O)(=O)NC(=O)C23CC4CC(CC(C4)C2)C3)cc1,-3.27
6,COc1cc(CNC2CCC(C)C2)cc(OC)c1 (stereo not shown),-2.34
7,COc1cccc(C(N)CC(=O)O)c1 (stereo not shown),0.0345
8,CCOc1ccc(N2C(=O)C(C)SC23C(=O)N(CN2CCCCC2)c2ccccc23)cc1 (stereo not shown),-3.04
9,CCOCCCNc1ncc2c(n1)CC(c1ccc(C)cc1)CC2=O (stereo not shown),-9.34
10,COc1ccccc1CCNC(=O)c1cnc2cc(C)ccn2c1=O,-5.27
11,Cc1ccc(-c2cc(NC(=O)COc3ccc(C(C)(C)C)cc3)on2)cc1,-1.47
12,CCCOc1ccc(CNC(=O)Nc2cccs2)cc1,0.596
13,Fc1ccc(C2=NCCn3cccc32)cc1,5.37
14,CCOC(=O)C1=C(CS(=O)(=O)c2ccc(F)c(C)c2)NC(=O)NC1c1cc(OC)ccc1OC (stereo not shown),-3.94
15,C=CCON1C(=O)C(C)(C)N(OCC=C)C(=O)C1(C)C,-2.68
16,Cc1ccsc1C1NC(=O)c2c(sc3c2CCCC3)N1 (stereo not shown),18.2
17,Cc1ccc(S(=O)(=O)Nc2ccc(NC(=O)C3C4C=CC(O4)C3C(=O)O)cc2)cc1 (stereo not shown),1.59
18,O=C(CCC(=O)NC1CCCCCC1)Nc1nc(-c2cc3cc(Cl)ccc3oc2=O)cs1,2.4
19,CS(=O)(=O)N1CCn2c1nc1ccccc12,-1.43
20,Cc1ccc(C)c(N2C(=O)C3CC=CCC3C2=O)c1 (stereo not shown),3.44
21,COc1cc(CN2CCN(C(=O)c3cc(OC)c(OC)c(OC)c3)CC2)cc(OC)c1,-1.1
22,Cc1ccc(CS(=O)(=O)Cc2ccc(C(=O)NCCCOC(C)C)o2)cc1,-2.99

row,Compound,% Inhibition @ 10 uM [%]
1,CCCCNC(=O)c1c(NC(C)=O)sc2c1CCCC2,-3.92
2,COC(=O)c1ccc(C2/C(=C(/O)OCc3ccccc3)C(C)=Nc3ncnn32)cc1 (stereo not shown),1.26
3,CCCOc1ccc(C2C(C(=O)c3ccc(C)cc3)=C(O)C(=O)N2Cc2ccco2)cc1 (stereo not shown),0.161
4,CCOC(=O)c1[nH]c2ccccc2c1NC(=O)c1ccccc1C,-1.29
5,CCOCCCn1c(=N)c(S(=O)(=O)c2ccc(Cl)cc2)cc2c(=O)n3ccccc3nc21,-1.52
6,O=CN1CCN(Cc2ccccc2C(F)(F)F)CC1,-7.35
7,Cc1cccc(CCNC(=O)c2cccc3c2C(=O)N(C2CCCCC2)C3)c1,2.9
8,Cc1cccc2sc(NC(=O)c3ccc(Br)o3)nc12,-3.92
9,Cc1ccc(NC(=O)c2cccc(S(=O)(=O)Nc3cccc(C(=O)O)c3)c2)cc1,1.63
10,c1ccc(CNc2cc(-c3ccccc3)nc(-c3ccccc3)n2)cc1,6.6
11,Cc1ccc2c(c1)C(=O)N(c1ccc(O)cc1)C2=O,1.89
12,CC(C)C(C(=O)O)N1C(=O)C2C3C=CC(C2C1=O)C1C(=O)N(C(C(=O)O)C(C)C)C(=O)C31 (stereo not shown),4.17
13,CN(Cc1ccco1)C(CNS(=O)(=O)c1ccccc1)c1ccccc1 (stereo not shown),-0.671
14,CCOC(=O)C(C(N)=O)c1nc(-c2ccccc2)cc(-c2ccccc2)n1 (stereo not shown),-0.949
15,CC(=O)c1c(O)cc(C)o/c1=N\c1ccc(C)cc1C,-1.64
16,c1ccc(N2CCN(Cc3cccnc3)CC2)cc1,-4.35
17,CCOc1ccc(C(=O)Nc2ccccc2C(N)=O)cc1,4.3
18,CCc1nnc(NC(=O)CSc2nnc(NC(C)=O)s2)s1,29.2
19,Cn1c(C(N)=O)cc2ccccc21,1.63
20,CCOC(=O)c1sc2cccc(F)c2c1N,-3.78
21,Cc1ccc(S(=O)(=O)N(CC(=O)NCC2CCCO2)c2cccc(Br)c2)cc1 (stereo not shown),8.19
22,Cc1ccc(NC(=O)c2ccccc2N(C)S(C)(=O)=O)cc1C,1.94

row,Compound,% Inhibition @ 10 uM [%]
1,COC(=O)c1ccc(NC(=O)c2ccc(Br)cc2)cc1,-2
2,Cc1nc(-c2ccccc2)cc(N2CCCC2)n1,-3.26
3,O=C(Nc1ccncc1)c1cccc(COc2ccc3ccccc3c2)c1,-3.13
4,O=C(NCCc1ccccc1)C1CCN(S(=O)(=O)c2ccc3[nH]c(-c4ccccc4)nc3c2)CC1,-1.97
5,Cc1nn(C)c2c1c(-c1ccccc1)cc(=O)n2Cc1cc(=O)n2ccccc2n1,-0.795
6,O=C(NCCC1=CCCCC1)C1CCN(S(=O)(=O)c2ccc(Br)s2)CC1,-4.53
7,Clc1cccc(CCNC2CCN(Cc3ccccc3)CC2)c1,-2.91
8,COc1ccc(-c2c(C)nn3c(-c4cccs4)cc(C(F)(F)F)nc23)cc1,3.61
9,Cc1nn(C)cc1CN(C)C(=O)c1cc2nc(-c3ccc4c(c3)OCO4)cc(C(F)(F)F)n2n1,-0.519
10,O=C(Cc1cccs1)NC1CCCCCC1,-4.39
11,CCCN1C(=O)c2oc3cc(C)cc(C)c3c(=O)c2C1c1ccccc1F (stereo not shown),0.00706
12,NS(=O)(=O)c1ccc(Cc2ccc(S(N)(=O)=O)cc2)cc1,0.774
13,CCOc1ccc(-c2cc(C(=O)N3CCC4(CC3)OCCO4)c3ccccc3n2)cc1,-2.26
14,COc1ccc2cc(-c3nc4cccnc4[nH]3)c(=O)oc2c1,-2.41
15,COc1ccc2c(CNCCc3ccccc3Cl)c(C(=O)O)[nH]c2c1,-0.397
16,Cc1nn2c3ccccc3nc2c2ccccc12,5.3
17,Fc1ccccc1N1CCN(Cc2ccc(C(F)(F)F)cc2)CC1,2.23
18,C=CCC(C=C)S(=O)(=O)c1ccc(C)cc1 (stereo not shown),1.03
19,Cc1nnc(SCC(=O)NCCc2cccs2)c2nn(-c3ccccc3)c(C)c12,1.55
20,Cc1ccccc1NC(=O)C1CC=CCC1C(=O)O (stereo not shown),2.22
